Reference: article PMC4336329 (PLoS ONE, 2015)
Out of some 310,000 compounds screened, about 14,000 (4.5%) showed an effect of 50% or more. Effects have a minus sign here. Some of the results follow. Where a SMILES comes first, the peptide text is derived from it.

What follows are molecules tested against human ether-à-go-go-related gene (hERG) potassium channel (human, UniProt Q12809) (assay: primary screen, population patch clamp on CHO cells stably expressing hERG).
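Further: peak tail current of the secondary pulse compared with the same well before compound.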

Chain of human ether-à-go-go-related gene (hERG) potassium channel (Q12809 whole entry, looked up): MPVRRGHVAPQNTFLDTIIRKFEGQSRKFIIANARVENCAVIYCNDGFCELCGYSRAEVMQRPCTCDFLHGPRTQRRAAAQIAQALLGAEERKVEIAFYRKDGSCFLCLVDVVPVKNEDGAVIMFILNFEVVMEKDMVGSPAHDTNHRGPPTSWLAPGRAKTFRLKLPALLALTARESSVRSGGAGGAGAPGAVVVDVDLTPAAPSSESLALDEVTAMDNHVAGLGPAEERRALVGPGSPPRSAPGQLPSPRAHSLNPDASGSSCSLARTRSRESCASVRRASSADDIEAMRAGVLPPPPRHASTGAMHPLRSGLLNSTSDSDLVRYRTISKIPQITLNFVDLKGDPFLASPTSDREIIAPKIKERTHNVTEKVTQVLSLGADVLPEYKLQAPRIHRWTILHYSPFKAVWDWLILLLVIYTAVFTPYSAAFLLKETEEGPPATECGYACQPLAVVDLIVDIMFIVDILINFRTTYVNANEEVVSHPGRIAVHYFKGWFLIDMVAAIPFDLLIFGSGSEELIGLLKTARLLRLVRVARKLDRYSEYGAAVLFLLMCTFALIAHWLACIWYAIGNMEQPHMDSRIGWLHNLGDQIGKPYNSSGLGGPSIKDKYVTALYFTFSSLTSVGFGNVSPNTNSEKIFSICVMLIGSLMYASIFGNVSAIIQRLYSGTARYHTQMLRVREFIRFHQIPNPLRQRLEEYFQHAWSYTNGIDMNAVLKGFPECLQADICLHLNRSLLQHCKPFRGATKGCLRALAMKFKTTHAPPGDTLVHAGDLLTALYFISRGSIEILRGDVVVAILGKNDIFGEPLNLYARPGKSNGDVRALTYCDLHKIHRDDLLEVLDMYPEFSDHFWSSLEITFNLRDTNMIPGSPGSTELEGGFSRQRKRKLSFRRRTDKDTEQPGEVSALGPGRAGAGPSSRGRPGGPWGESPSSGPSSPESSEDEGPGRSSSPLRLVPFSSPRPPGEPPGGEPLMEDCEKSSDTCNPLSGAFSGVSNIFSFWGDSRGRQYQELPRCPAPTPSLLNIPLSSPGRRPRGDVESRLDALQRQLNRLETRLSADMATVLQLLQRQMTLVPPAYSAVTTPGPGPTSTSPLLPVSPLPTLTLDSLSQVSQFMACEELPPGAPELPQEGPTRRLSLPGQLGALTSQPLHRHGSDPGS

| Structure (SMILES) | hERG current change (%, negative = inhibition) at 10uM |
| --- | --- |
| CC(C)CNC(=O)CC(=O)N/N=C/c1cccs1 | 3.83% |
| O=C(c1cccnc1)N1CCN(C(=O)c2ccco2)CC1 | 9.05% |
| CC(/C=C1\SC(=O)N(CCCC(=O)O)C1=O)=C\c1ccccc1 | 12% |
| COc1ccc(Cl)cc1S(=O)(=O)NC(C)C(=O)NCc1ccc2c(c1)OCO2 (centres unmarked) | 0.0796% |
| Cc1ccccc1NC(=O)CSc1nc2cc3c(cc2cc1C)CCC3 | 1.79% |
| NNC(=S)Nc1c(Br)cc(F)cc1Br | 5.92% |
| Cc1ccc(S(=O)(=O)NCc2c(-c3ccccc3)noc2C)cc1 | -29.5% |
| O=C(c1ccnc(Cl)c1)N1CCCC(N2CCN(c3ccccc3F)CC2)C1 (centres unmarked) | -11.2% |
| CN(C)c1ccc(C(=S)N2CCN(S(=O)(=O)c3ccccc3)CC2)cc1 | 3.74% |
| Cc1nc(NC(=S)NC(=O)c2ccco2)sc1C(=O)N(C)C | 27.6% |
| CCn1cc(C(=O)NCc2ccc(OC)cc2)c(=O)c2ccc(C)nc21 | 22.1% |
| CC1CCN(CCc2nc3cc(NC(=O)COc4ccc(Cl)cc4)ccc3n2C)CC1 | -74.7% |
| O=C(CCCCCN1C(=O)CCC1=O)Nc1ccc(Cl)c(C(F)(F)F)c1 | -58.7% |
| O=C(CCNC(=O)c1ccccc1Cl)NCCCSc1ccccc1 | -8.64% |
| Cc1ccc(S(=O)(=O)CCC(=O)OCC(=O)N(C)CC(=O)Nc2ccc(F)cc2)cc1 | -21.5% |
| O=C(CCn1c(=O)[nH]c2ccccc2c1=O)N1CCN(c2cccc(C(F)(F)F)c2)CC1 | -43% |
| CCON1C(=O)C(C)(C)N(OCC)C(=O)C1(C)C | 13.2% |
| S=C(NC1CCCCC1)N1CCn2cccc2C1c1ccncc1 (centres unmarked) | -10.1% |
| Cc1c(OCC(=O)N2CCC(C(N)=O)CC2)ccc2c3c(c(=O)oc12)CCC3 | 7.25% |

| Structure (SMILES) | hERG current change (%, negative = inhibition) at 10uM |
| --- | --- |
| CCCCC(c1nnnn1CS(=O)(=O)c1ccc(C)cc1)N1CCN(c2ccccc2)CC1.Cl (centres unmarked) | 12.5% |
| Cn1c(=O)c(=O)n(C)c2cc(N3CCOCC3)c(NS(=O)(=O)c3ccc(F)c(Cl)c3)cc21 | -16.6% |
| CCCCc1c(O)nc(SCC(=O)N2CCOCC2)n(-c2ccccc2C)c1=O | 18.8% |
| O=C(Nc1ccccc1)C1=C[C@@H](c2csc3ccccc23)C[C@@H](OCc2ccc(CO)cc2)O1 | 14.8% |
| CCOC(=O)c1ccc(N=C2SC(C(=O)NC)CC(=O)N2CCc2ccccc2)cc1 (centres unmarked) | -0.909% |
| CCn1cc(C(=O)NCCCOC)c(=O)c2cc(S(=O)(=O)N(C)C3CCCCC3)ccc21 | -23% |
| COC(=O)c1cc(S(=O)(=O)NCCc2ccc(Cl)cc2)c[nH]1 | -3.4% |
| C(=N\N1CCN(Cc2cccc3ccccc23)CC1)/c1cccnc1 | -1.95% |
| CCn1c(C(=O)N2CCCC(C(=O)NCCCc3ccccc3)C2)cc2sccc21 (centres unmarked) | -36.5% |
| CCC(=O)N(CCc1ccccc1)Cc1cc2cc3c(cc2[nH]c1=O)OCO3 | -2.97% |
| COc1cccc(/C=N/Nc2cc(C)nc(-c3ccccc3O)n2)c1O | -0.921% |
| CCOC(=O)c1sc2nc(C)nc(NCc3ccccc3)c2c1C | 9.35% |
| Cc1ccc(S(=O)(=O)N[C@H](C(=O)Oc2ccc3c(C(F)(F)F)cc(=O)oc3c2)c2ccccc2)cc1 | 4.99% |
| CCN(CCCNC(=O)CN1C(=O)COc2ccccc21)c1cccc(C)c1 | -11.3% |
| COC(=O)[C@H](Cc1ccccc1)NC(=O)[C@@H](N)CC(=O)O (H-Asp-Phe-OMe) | 2.13% |
| COc1ccc(C(=O)NNC(=O)Nc2ccc(Cl)cc2)cc1 | 11% |
| COc1ccc(OC)c(NC(=S)NCCC(c2ccccc2)c2ccccc2)c1 | 1.73% |
| COc1cccc(NC(=O)Cn2nnc(-c3ccccc3N)n2)c1 | -6.36% |
| CC1(C2CC(C(F)(F)F)n3nc(C(=O)O)cc3N2)CC1 (centres unmarked) | 22.9% |

| Structure (SMILES) | hERG current change (%, negative = inhibition) at 10uM |
| --- | --- |
| CN1C(=O)Cn2c1nc1ccccc12 | 7.66% |
| CCCCCC(=O)NC(=S)Nc1ccc(N2CCCCC2)c(Cl)c1 | 12% |
| CCOc1cc(/C=N/N=C2/NC(=O)C(CC(=O)O)S2)ccc1OCc1ccccc1Cl (centres unmarked) | 10% |
| Cc1nc(N)nc(Nc2ccc(Cl)cc2)c1Br | -7.99% |
| COc1ccc(-c2n[nH]c(C)c2-c2ccc(Cl)cc2)c(O)c1 | 9.37% |
| On1c(-c2ccccc2)nc2ccc(Cl)cc21 | -3.98% |
| O=C(O)c1nc(N2CCCCC2)ncc1Cl | 13.6% |
| CC(=O)Nc1ccc(S(=O)(=O)N2CCN(S(=O)(=O)c3ccc(NC(C)=O)cc3)CC2)cc1 | 16.2% |
| C=CCCCOc1ccc(C(=O)O)cc1 | 10.2% |
| CCCCn1nnnc1NCc1cccc(OC)c1OC | -4.34% |
| O=C(NCCC1=CCCCC1)C1CCN(C(=O)Cc2ccccc2)CC1 | -5.84% |
| Cc1ccc(C)c(S(=O)(=O)N2CCN(C(=O)c3cc(-c4cccs4)nn3-c3ccccc3)CC2)c1 | 5.54% |
| COc1cc(NC(=O)c2cc3nc(C4CC4)cc(C(F)(F)F)n3n2)c(OC)cc1Cl | 0.745% |
| CC(=O)Oc1ccc(-c2nc(-c3cccnc3)no2)cc1 | 14.2% |
| COC(=O)Cc1cc(=O)n2c(nc3ccccc32)[nH]1 | 9.25% |
| COc1ccc(OC)c(/C=N/NC(=O)c2cc3c(OC)cccc3[nH]2)c1 | -3.52% |
| COc1ccc(Nc2nc(N)nc(CSc3nncn3C)n2)cc1 | 20.1% |
| COCCNC(=S)N1CCC(C(=O)c2ccc(C)cc2)CC1 | -2.77% |
